Test results taken from the supplement of paper PMC10126150.
Sequences with one replicate were seen in a single cluster, so their values are uncertain.

Tested on: ATP
Test: switch fluorescence ratio, 500 uM ATP over buffer (Cy3 cluster intensity, sum of 5 cycles each) (fold (ratio)); higher = stronger signal-on switching upon ATP binding; sequences stand for … in TCGTCGGCAGCGTCAGATGTGTATAAGAGACAGTTTTTTTTTTTTTTTTTTTTTTTTT…TC
Conditions: aptamer strand: ATP DNA aptamer (quencher-CACCTGGGGGAGTATTGCGGAGGAAGG + anchor), 100 nM annealed; ATP concentration: 500 uM; one replicate
Summary of the method: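 The fluorescence ratio divides summed target-cycle Cy3 intensity by summed buffer-cycle Cy3 intensity for each cluster and is averaged per switch-domain sequence. Cy3-labelled switching-strand clusters on a modified Illumina MiSeq flow-cell were annealed to 100 nM quencher-labelled ATP aptamer, then imaged in selection buffer and again after 15 min with 500 uM ATP at 22 °C. Five such cycles were run, with NaOH stripping and re-annealing between them, and clusters outside 100-1000 RFU were excluded.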
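Also: ATP exposure 15 min at 22 °C before imaging.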

| Sequence | switch fluorescence ratio |
| --- | --- |
| AGTTTGATCA | 0.965 |
| TAGAAGTACG | 1.11 |
| CCCGGGAATA | 1.02 |
| GGGAGTTGTA | 0.954 |
| CCGTAGATGG | 1.85 |
| CTCAGTATTA | 1.05 |
| TATCTCTGCA | 1.68 |
| TTTAAGGCTT | 0.985 |
| AGTTCCCGCA | 1.83 |
| TAAAGTAGAG | 0.988 |
| CCAGCAGCTC | 2.84 |
| ATCGCGCGGG | 1.01 |
| CCAGAGACGA | 1.15 |
| CATATGGTTA | 0.967 |
| AAGTAACAAT | 0.991 |
| ACGTAGTCGT | 1.04 |
| CCCCCAAGAA | 2.24 |
| GCAACAAATG | 1.04 |
| ATGGCGAATG | 0.982 |
| AGACTATACG | 1.07 |
| GTAACGTCGG | 1 |
| CCTGATTATC | 1.04 |
| CGATGTCACA | 1.05 |
| TGTCGGTCTT | 1.26 |
| TTATCTAAAA | 0.991 |
| TTTTACTCGT | 1.03 |

| Sequence | switch fluorescence ratio |
| --- | --- |
| GATGTGCTAC | 1.09 |
| CTTGGCCAGA | 1.02 |
| TCCAACGATT | 1.06 |
| ACGTAACGGT | 1.24 |
| GAGAATATTA | 0.946 |
| CTGCTGCAGT | 1.03 |
| TCCAATGGTA | 0.975 |
| AGGTGACCT | 1.07 |
| GCGCCGCGTA | 1.36 |
| GGGTTGTTCG | 0.944 |
| CTGAAGGAGA | 1.06 |
| ATAACGAAGC | 1.03 |
| TCTTTGTCTT | 1.02 |
| AATTGGCGTG | 0.967 |
| TATCCAGAGT | 1 |
| TGGGTC | 0.971 |
| AACCGCACTA | 2.41 |
| CGCGTCATTT | 0.984 |
| TGTATTCCTT | 0.999 |
| CAATTAGCG | 1 |
| GACGTCACCC | 1.56 |
| GTGTACATTT | 0.982 |
| GGAGGCTACG | 1.05 |
| ACAGAGTCGC | 1.06 |
| GGTTTAAGAC | 1 |
| GGTGTATATA | 0.977 |

| Sequence | switch fluorescence ratio |
| --- | --- |
| ACATTCCG | 1.12 |
| GCGAAGGCCC | 0.984 |
| GTGCAGCGGC | 1.04 |
| CCGGGTGAAT | 1.02 |
| CGCCTCTCTG | 1.04 |
| CCAGTGCTTG | 1.04 |
| GCCCGGTATG | 1 |
| AAAGACATGC | 0.985 |
| TAAGTTTGCG | 0.962 |
| TATATCCCGC | 1.03 |
| ATGGGCGAAG | 0.996 |
| ATTGGGGC | 1.03 |
| ACTGGCGAGG | 1.02 |
| GTGTCTAGTC | 1 |
| ATATAGTGGG | 0.976 |
| CTGCCTGGGT | 0.991 |
| GGCTTAGACT | 1.01 |
| GGCCAAATT | 0.979 |
| CATTGTGTGG | 1 |
| GCTCTGGTTT | 0.976 |
| CCCTTTAAG | 0.992 |
| CACCTACTAC | 1.36 |
| TAAAGGACG | 1 |
| CAGGCTAGAG | 1.04 |
| TTACAGTATT | 1.07 |
| TAGGTAGATA | 1.03 |

| Sequence | switch fluorescence ratio |
| --- | --- |
| CTCTATACTT | 1.05 |
| CACCCGTTGT | 1.04 |
| ACCTTGGCAT | 1.06 |
| CAGCACTATT | 1.06 |
| CCCTTCTGTT | 0.965 |
| TGAGACAGTT | 0.969 |
| GCAGTGATTG | 1.04 |
| AACGGTACAG | 1.29 |
| TTTGGAATCT | 1 |
| GCGGTTGCCG | 1.07 |
| TGATTATTG | 0.988 |
| GCGTATATTT | 1.05 |
| GCCGTTTCGA | 0.986 |
| ATGCCAACCC | 1.06 |
| TAGGAGTTTT | 1.01 |
| GATGTCTGTG | 0.964 |
| AGTTCTTGCC | 1.03 |
| AAATGCTTGT | 0.95 |
| AAAAGGATAC | 1.11 |
| AACTTAGGGC | 1.07 |
| CGGGGGATAT | 1.06 |
| GGTTCCCGTC | 0.883 |
| GCTCTGGCCT | 1.04 |
| TAGCCGTTTC | 1.01 |
| AAACGTGGAA | 0.969 |
| TGTCCGGGAC | 0.996 |

| Sequence | switch fluorescence ratio |
| --- | --- |
| TACATTGAGC | 1.05 |
| CGGTCATTCT | 0.974 |
| AGCGGTCGTG | 1.01 |
| GTCCGGGGG | 1.01 |
| ATGCTGCGGT | 0.955 |
| CAACGACGGG | 1.06 |
| CACAGGTCTG | 1.02 |
| AGTAGCTGAT | 1 |
| CCGACCTATG | 1.16 |
| TAGGTGATCA | 0.971 |
| GACGCTCG | 0.984 |
| TCCTTTGTTA | 1.01 |
| TGGGGCAGCT | 0.98 |
| ATCTTGGGGG | 1.08 |
| CTTAGCTACC | 1.19 |
| AGCTAGGCGA | 1.07 |
| CAGATGACGA | 1.01 |
| GTGCCAGGGC | 0.915 |
| TATTTGTATA | 1.02 |
| ATAGTCGGTG | 1.02 |
| TGGCGAAAAG | 1.02 |
| GAATAATTAG | 0.976 |
| CACCATGCGA | 1.11 |
| AGTCGTGGGG | 0.983 |
| TGGTCGGTTA | 1 |
| GCTCATGACA | 0.991 |

| Sequence | switch fluorescence ratio |
| --- | --- |
| TTAAGTTGCT | 0.997 |
| ACTGATTGCT | 0.971 |
| CCCGCTATTG | 1.99 |
| CTCCAAGAGG | 1.37 |
| TTCTACATTC | 1.03 |
| AATCAATGAG | 1.04 |
| GCTTGTT | 1.01 |
| GATTTAAGG | 0.969 |
| GTGATGACGA | 1 |
| GCTTTATCTT | 0.977 |
| GTCATAAACG | 1.04 |
| GTAGTCTGAG | 0.979 |
| GAGGATTGCG | 0.954 |
| CCCCTATTGG | 1.13 |
| TAGGTCGTTG | 0.966 |
| GTAATTAGGC | 1.03 |
| GTAGACACCT | 1.15 |
| AGAGGCGCTG | 0.992 |
| GCTGGCCGCG | 1 |
| AGTCAATTCG | 1 |
| TTGTTTAGTT | 1.01 |
| TGTTTCTATG | 0.986 |
| GTGTCTAGGG | 0.947 |
| GGTGGTGCGT | 0.996 |
| CTCGATCTGG | 1.02 |
| GGAACATGA | 0.983 |

| Sequence | switch fluorescence ratio |
| --- | --- |
| GATGGCATTT | 0.969 |
| GATTGTACTG | 1.02 |
| GCTGGCCAGT | 1.04 |
| CCCTATTAAG | 1.02 |
| AACAGATTGC | 0.979 |
| GGTTATCGAA | 0.973 |
| TCAGAAGTGT | 1.01 |
| ACAATTCAAT | 0.971 |
| TCGGAACCTG | 0.883 |
| GCGTTAGACT | 1.04 |
| TATGTCGTAT | 0.993 |
| ACAGAAGTT | 0.985 |
| TTAAAGGT | 1.02 |
| ACCTTACACG | 1.66 |
| TGGGAGACA | 1.05 |
| ATAAGCAACA | 1.08 |
| TCGACTCTTT | 1.06 |
| GTTTTCAGTC | 0.991 |
| ACCACATGT | 1.04 |
| ACCTCTTACG | 1.02 |
| AAGCATATCT | 1.13 |
| CTAACAGGAG | 1.01 |
| ATCCCGTTGG | 1.03 |
| AAAGCTGTGG | 0.955 |
| TGGTTGTAT | 1.01 |
| TTTTCTGTT | 1 |

| Sequence | switch fluorescence ratio |
| --- | --- |
| GGACCTTTAG | 0.99 |
| AATCAACCTG | 1.08 |
| TTGAAGTATT | 0.966 |
| GGACCATTCG | 1.01 |
| CCCAAGTAAA | 1.01 |
| CTCCGCCGTT | 1.29 |
| AATGGTTATT | 1.01 |
| GAGGCAACAG | 1.47 |
| ATGGCTCAGT | 0.972 |
| GTTATTGTGA | 0.986 |
| CATTATCTTC | 0.987 |
| ATGCCTCTGA | 1.01 |
| TTTCCAGTTA | 1 |
| GCTACCTGTC | 0.976 |
| GCCAAGGGG | 1.03 |
| GGATAGGATA | 1.04 |
| GCAGCATTA | 2.37 |
| TACTCGGAAA | 1.18 |
| GAGTGCTGAC | 0.969 |
